# About 220 (0.56%) of roughly 39,000 compounds showed activity. Some of the results follow.
# Test system: Escherichia coli K-12 BW25113
# Experiment: relative growth (OD600 normalised to plate interquartile mean) (fraction); higher = less growth inhibition, active = 0.2 or less
# Conditions: 50 µM; LB; incubation time: overnight (16-24 h)
# 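Note: static incubation at 37 °C against the wild-type strain, values averaged over two biological replicates.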
row,SMILES,relative growth
1,COc1cccc(C#Cc2cnc3c(c2)C(=O)N([C@@H](C)CO)C[C@H](C)[C@H](CN(C)C(=O)C2CCOCC2)O3)c1,inactive: 1.01
2,Cc1ccc(C(N)=O)cc1N,inactive: 1.02
3,CC(C)NC(=O)Nc1ccc2c(c1)C(=O)N([C@@H](C)CO)C[C@@H](C)[C@@H](CN(C)S(=O)(=O)c1cn(C)cn1)OCCCC[C@H](C)O2,inactive: 0.995
4,C[C@H]1CCCCO[C@@H](CN(C)CC2CCCCC2)[C@@H](C)CN([C@@H](C)CO)C(=O)c2cc(NS(=O)(=O)c3ccc(Cl)cc3)ccc2O1,inactive: 0.958
5,C[C@H](CO)N1C[C@H](C)[C@@H](CN(C)C(=O)c2ccccc2)OCCCC[C@H](C)Oc2ccc(NC(=O)Nc3ccc(F)cc3)cc2C1=O,inactive: 0.999
6,C[C@@H]1CN([C@@H](C)CO)C(=O)c2cc(NS(=O)(=O)c3ccc(Cl)cc3)ccc2O[C@@H]1CN(C)Cc1ccc(Cl)c(Cl)c1,inactive: 1.04
7,CO[C@@H]1CN(C)C(=O)c2cc(NC(=O)Nc3ccc(Cl)cc3)ccc2OC[C@@H](C)N(C(=O)Nc2c(C)noc2C)C[C@@H]1C,inactive: 0.993
8,CC(C)[Si](C#CCCc1ccccc1)(O[C@H](c1ccccc1)c1cn(Cc2ccccc2)nn1)C(C)C,inactive: 0.996
9,C[C@H]1CCCCO[C@@H](CN(C)Cc2ccc(C(=O)O)cc2)[C@@H](C)CN([C@@H](C)CO)C(=O)c2cc(NC(=O)Nc3cccc4ccccc34)ccc2O1,inactive: 0.97
10,C[C@H]1CN([C@@H](C)CO)C(=O)Cc2cc(NC(=O)Nc3cccc4ccccc34)ccc2O[C@H]1CN(C)Cc1ccc(Cl)c(Cl)c1,inactive: 1
11,C[C@@H]1CN([C@H](C)CO)C(=O)c2cccc(NS(=O)(=O)c3cn(C)cn3)c2O[C@@H]1CN(C)S(=O)(=O)c1ccc(Cl)cc1,inactive: 0.913
12,C[C@@H]1CCCCO[C@@H](CN(C)Cc2ccc(C(F)(F)F)cc2)[C@H](C)CN([C@@H](C)CO)C(=O)c2cc(NC(=O)CCCN(C)C)ccc2O1,inactive: 0.914
13,CC(=O)N1CCC2(CCCN2)CC1,inactive: 0.92
14,COc1ccc(NC(=O)N(C)C[C@H]2OCCCC[C@H](C)Oc3ccc(NS(=O)(=O)c4ccc(OC)cc4)cc3C(=O)N([C@H](C)CO)C[C@@H]2C)cc1,inactive: 1.03
15,COc1ccc(S(=O)(=O)N(C)C[C@@H]2Oc3ccc(NC(=O)Nc4cccc5ccccc45)cc3C(=O)N([C@@H](C)CO)C[C@H]2C)cc1,inactive: 1
16,COc1ccc(NC(=O)N(C)C[C@@H]2Oc3ccc(NS(=O)(=O)c4c(C)noc4C)cc3CC(=O)N([C@@H](C)CO)C[C@@H]2C)cc1,inactive: 1.01
17,CS(=O)(=O)NC[C@@H]1OC[C@@H]2CN(C(=O)c3ccnnc3)CC[C@@H]21,inactive: 0.982
18,C[C@@H]1CN([C@@H](C)CO)S(=O)(=O)c2ccc(C#CC3CC3)cc2O[C@@H]1CN(C)Cc1ccc(F)cc1,inactive: 1.05
19,C[C@@H]1CN([C@@H](C)CO)C(=O)Cc2cc(NC(=O)Nc3ccc(C(F)(F)F)cc3)ccc2O[C@@H]1CN(C)Cc1ccncc1,inactive: 1
20,C[C@@H]1CCCCO[C@@H](CN(C)C(=O)Nc2ccc(C(F)(F)F)cc2)[C@H](C)CN([C@@H](C)CO)C(=O)c2cc(NC(=O)c3ccccc3)ccc2O1,inactive: 1.03

row,SMILES,relative growth
1,CN1CCN(C(=O)C[C@H]2CC[C@H]3[C@@H](COC[C@@H](O)CN3CC3CCCC3)O2)CC1,inactive: 1
2,C[C@H]1CN([C@@H](C)CO)C(=O)c2cc(NC(=O)Nc3ccccc3)ccc2O[C@H]1CN(C)C(=O)Nc1ccc(C(F)(F)F)cc1,inactive: 1
3,C[C@H](CO)N1C[C@H](C)[C@@H](CN(C)C(=O)Nc2cc(F)ccc2F)Oc2cc(/C=C/c3ccccc3)ccc2S1(=O)=O,inactive: 1.06
4,C[C@@H]1CN([C@@H](C)CO)C(=O)c2cc(NC(=O)Cn3cnnn3)ccc2O[C@H]1CN(C)C(=O)NC1CCCCC1,inactive: 0.974
5,C[C@@H]1CCCCO[C@@H](CN(C)S(=O)(=O)c2ccc(Cl)cc2)[C@@H](C)CN([C@H](C)CO)C(=O)c2cc(NC(=O)Nc3cccc4ccccc34)ccc2O1,inactive: 1.03
6,O=C1O[C@@H](CO)[C@H](O)[C@@H](O)[C@@H]1O,inactive: 1.02
7,CC(C)NC(=O)Nc1ccc2c(c1)CC(=O)N([C@@H](C)CO)C[C@@H](C)[C@@H](CN(C)C(=O)NC1CCCCC1)O2,inactive: 1.02
8,CC(C)C(O)=C1C(=O)OC(c2ccoc2)C2(C)C(O)C(O)C34OC5(C)OC3(C12)C(O)C1(O)C(O)C2(C)CC1(O5)C4(C)C2CC(=O)O (stereo not given),inactive: 1.05
9,COc1cc2c(Oc3ccc(NC(=O)C4(C(=O)Nc5ccc(F)cc5)CC4)cc3F)ccnc2cc1OCCCN1CCOCC1,inactive: 0.974
10,CO[C@H]1CN(C)C(=O)c2cc(NC(=O)Nc3ccccc3)ccc2OC[C@@H](C)N(C(=O)CN(C)C)C[C@H]1C,inactive: 1.04
11,COCC(=O)N1C[C@]2(CCN(CC2)C(=O)CN2CCOCC2)c2c([nH]c3cc(ccc23)OC)[C@@H]1CO,inactive: 0.974
12,CN(C)C(=O)C[C@H]1CC[C@H]2[C@@H](COC[C@@H](O)CN2S(=O)(=O)c2ccccc2)O1,inactive: 1.01
13,C[C@@H]1CCCCO[C@H](CN(C)Cc2ccc(C(=O)O)cc2)[C@@H](C)CN([C@H](C)CO)C(=O)c2cc(NS(=O)(=O)c3ccc(Cl)cc3)ccc2O1,inactive: 1.01
14,C[C@H]1CN([C@@H](C)CO)C(=O)c2cc(NC(=O)Cn3cnnn3)ccc2O[C@H]1CN(C)Cc1ccc(-c2ccccc2)cc1,inactive: 1.02
15,C[C@@H]1CCCCO[C@@H](CN(C)C(=O)Nc2ccccc2)[C@H](C)CN([C@@H](C)CO)C(=O)c2cc(NS(=O)(=O)c3ccccc3)ccc2O1,inactive: 1.02
16,C=C[C@@](C)(O)CC/C=C(\C)C(=O)O[C@@H]1[C@@H]2O[C@]2(C)[C@H]2[C@H](O[C@@H]3O[C@H](CO)[C@@H](O)[C@H](O)[C@H]3O)OC=C[C@@]12O,inactive: 0.991
17,O=C(C[C@H]1CC[C@@H](NS(=O)(=O)c2ccc(F)cc2)[C@@H](CO)O1)NCc1ccc(Cl)c(Cl)c1,inactive: 0.992
18,C=CC(=O)NCCc1ccncc1,inactive: 1.05
19,CCS(=O)(=O)N1CC[C@]2(CC1)CN([C@H](CO)c1c2c2ccc(cc2n1C)OC)C(=O)c1cccc(c1)F,inactive: 1.01
20,O=C(Cc1cccs1)N1c2ccccc2Sc2ccccc21,inactive: 0.881

row,SMILES,relative growth
1,O=C(O)Cc1ccc(-c2ccccc2)cc1,inactive: 0.821
2,C[C@@H]1CN([C@H](C)CO)C(=O)Cc2cc(NC(=O)Nc3ccc(C(F)(F)F)cc3)ccc2O[C@@H]1CN(C)Cc1ccncc1,inactive: 0.99
3,Cc1noc(C)c1NC(=O)N[C@H]1CC[C@H](CC(=O)N2CCN(C)CC2)O[C@@H]1CO,inactive: 1.01
4,C[C@@H]1CCCCO[C@@H](CN(C)Cc2ccncc2)[C@@H](C)CN([C@@H](C)CO)C(=O)c2cc(NC(=O)Nc3ccc(F)cc3)ccc2O1,inactive: 1
5,CN(C)c1ccc(O)c2c1C[C@H]1C[C@H]3[C@H](N(C)C)C(=O)C(C(N)=O)=C(O)[C@@]3(O)C(=O)[C@H]1C2=O,active: 0.184
6,CCN(CC)CC#CCOC(=O)C(O)(c1ccccc1)C1CCCCC1.Cl (stereo not given),inactive: 1.05
7,C#CCN1[C@H](/C=C/C2CC2)[C@H](Cc2ccccc2)OC(=O)[C@@H]1Cc1ccc(-n2cc(COc3ccccc3/C=C(C)/C=C/C(=O)NO)nn2)cc1,inactive: 0.999
8,O=C(C[C@@H]1C[C@@H]2c3cc(NC(=O)NC4CCCC4)ccc3O[C@@H]2[C@H](CO)O1)NCc1ccc(Oc2ccccc2)cc1,inactive: 0.991
9,Cn1c(=O)[nH]c2ncn(C)c2c1=O,inactive: 1.02
10,CC(=O)OC1(C(C)=O)CCC2C3C=C(Cl)C4=CC(=O)C5CC5C4(C)C3CCC21C (stereo not given),inactive: 1.07
11,CSC(=N)Nc1csc(C(F)(F)F)c1-c1ccccc1,inactive: 0.971
12,C[C@@H]1CN([C@H](C)CO)S(=O)(=O)c2ccc(C#CC3(O)CCCC3)cc2O[C@H]1CN(C)C(=O)Cc1ccccc1,inactive: 0.992
13,C[C@@H]1CN([C@@H](C)CO)S(=O)(=O)c2ccc(C#Cc3ccc(F)cc3)cc2O[C@H]1CN(C)S(=O)(=O)c1ccc(F)cc1,inactive: 1.01
14,C[C@@H]1CN([C@@H](C)CO)C(=O)c2cc(NC(=O)NC3CCCCC3)ccc2O[C@@H](C)CCCCO[C@H]1CN(C)Cc1ccc(C(=O)O)cc1,inactive: 1.01
15,Cc1noc(C)c1S(=O)(=O)Nc1ccc2c(c1)C(=O)N([C@H](C)CO)C[C@H](C)[C@@H](CN(C)CC1CCCCC1)OCCCC[C@H](C)O2,inactive: 1.02
16,C[C@@H]1CN([C@@H](C)CO)C(=O)c2cc(NS(=O)(=O)c3ccc(Cl)cc3)ccc2O[C@@H](C)CCCCO[C@@H]1CN(C)Cc1ccccc1,inactive: 0.99
17,C[C@@H]1CN([C@@H](C)CO)C(=O)Cc2cc(NS(=O)(=O)c3cn(C)cn3)ccc2O[C@H]1CN(C)CC1CC1,inactive: 0.983
18,C[C@@H]1CCCCO[C@@H](CN(C)C(=O)C2CCCCC2)[C@@H](C)CN([C@H](C)CO)C(=O)c2cc(NS(=O)(=O)c3ccc(F)cc3)ccc2O1,inactive: 1
19,CC(C)NC(=O)N(C)C[C@H]1OCCCC[C@H](C)Oc2ccc(NS(C)(=O)=O)cc2C(=O)N([C@H](C)CO)C[C@@H]1C,inactive: 1.03
20,C[C@@H]1CCCCO[C@H](CN(C)C(=O)CCCN(C)C)[C@@H](C)CN([C@H](C)CO)C(=O)c2cc(NS(=O)(=O)c3cn(C)cn3)ccc2O1,inactive: 0.979

# Reference: the supplement of paper PMC9446081
